# Measured values reported in the supplement of paper PMC3334620.
# In all, about 33,000 sequences were measured (“E-score (-0.5 to 0.5)”: median about -0.056, highest 2% from about 0.38 on). The list shows a part of the results.
# Target: Stb4 (UniProt P50104)
# Test: PBM E-score (8-mer binding enrichment) (E-score (-0.5 to 0.5)); higher = stronger / more preferred TF binding; most listed sequences are background and not binding sites
# Details: protein concentration: 200 nM; construct: GST-DNA-binding domain
# Procedure, shortened: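 For each ungapped eight-base word taken together with its reverse complement, the Universal PBM Analysis Suite assigned an E-score. Binding data came from GST-tagged yeast transcription factors, applied at about 100-200 nM, on universal all-10-mer Agilent arrays made double-stranded by primer extension. Fluorescent anti-GST marked bound protein, and scans were normalised with masliner.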
row,Sequence,PBM E-score
1,CAGGCCAG,-0.105
2,CAGACAAG,-0.107
3,GATGGTTA,-0.018
4,AAATCGAA,-0.0555
5,ATTAGAAG,-0.154
6,CAACAGAA,-0.176
7,AAAGGTAC,0.0111
8,AATCGATG,-0.059
9,ATACTGAG,-0.0728
10,CATGTCAC,-0.0935
11,TCCCCCGA,0.303
12,CCAAAATA,0.0978
13,ATGCGAAG,-0.157
14,ATTCAGCA,-0.2
15,CTTTTCAA,-0.111
16,GGAGCCCC,-0.0597
17,CAAAGAGC,-0.0947
18,GAAAATAC,0.154
19,CCTTGTGC,-0.237
20,CGCCGAGC,0.39
21,CGTAGACA,-0.0783
22,TGCCCCAA,-0.144
23,GAGGTTAC,-0.00275
24,CCGTAAAG,0.122
25,AAATCATG,-0.27

row,Sequence,PBM E-score
1,CTGGTGGA,-0.243
2,GGCGCCCA,-0.134
3,CTAAATGC,0.0335
4,GGGGGAAA,0.11
5,AAAGGGAA,-0.131
6,AACGAATG,-0.142
7,CAGTATAC,-0.151
8,CGGGGTTC,0.186
9,CAAATACG,-0.135
10,CCACTACC,0.101
11,GGAGCGCC,0.147
12,CCTCCGAC,0.209
13,CCCGAGCC,0.438
14,CTAACACA,0.061
15,ATGTTAGA,-0.197
16,CTATTATA,0.0451
17,AAGCACTA,-0.125
18,TATTGGCA,-0.0668
19,CACTAGGA,-0.206
20,GCTCCTTA,0.0602
21,AACTACGA,-0.178
22,TCGCCCCA,-0.285
23,ATCACTCG,-0.0139
24,CCAGGATC,0.0122
25,GTTTTAGA,-0.0792

row,Sequence,PBM E-score
1,CCTAAAGG,-0.173
2,AGCTGCAG,-0.17
3,AGCAGGTC,-0.00878
4,AGACTGCA,-0.275
5,AACAGGAA,-0.219
6,CATCTGTC,0.0312
7,CCCAAATC,-0.0999
8,CCAGTCCA,-0.0635
9,ACTCGACG,-0.0414
10,CCTCGGAC,0.321
11,GCCTCCGC,0.0993
12,GTCGCACA,-0.114
13,GCGCCAAA,0.00856
14,GCCGTCCC,0.161
15,CCGATTAA,0.274
16,AATACTTC,-0.0258
17,CGTAACCC,0.0308
18,CATTGTCC,0.00398
19,ACATCGTC,-0.231
20,AGTAAACG,-0.0112
21,CAAATCAC,-0.013
22,AGATGCCT,-0.287
23,CGATGAAA,-0.0493
24,CATATGGG,-0.0619
25,TATCTGAA,0.0389

row,Sequence,PBM E-score
1,CTCGACCC,0.141
2,AAGACGGA,0.236
3,ATAGGAGC,-0.214
4,AATTTCGA,-0.152
5,GAAGAGAA,0.0491
6,CTAGACAC,-0.2
7,GTAGATTA,0.139
8,TGCAGGAA,-0.0762
9,AAAAACCG,0.117
10,ATAGGCTA,-0.295
11,CCTAATTC,-0.0372
12,CGGTGCAG,0.0654
13,GGACCCCA,-0.0727
14,ACCTCTAC,-0.0322
15,GAGAGGTA,-0.215
16,CAACTTTC,0.224
17,GTTAACAA,0.0513
18,AACAGTTC,-0.0211
19,CTCTTTGC,-0.0702
20,ACCATAGC,-0.123
21,ACACGTTA,-0.339
22,AAAAATTC,0.0047
23,AAAAGCAC,0.055
24,CACCTCCA,-0.167
25,CACGTGCG,-0.124

row,Sequence,PBM E-score
1,TAACAACA,0.0773
2,ATTAGCCG,0.4
3,CTTGTTGC,-0.165
4,AAGCCTGC,-0.0224
5,CACGTAAG,-0.0761
6,CCGCTGTC,0.00261
7,AAATTTGC,-0.0428
8,AAATACTA,-0.12
9,ATTGACAA,-0.143
10,CCAGCAAA,-0.18
11,TATACCGA,0.383
12,CAATAGGG,-0.163
13,ACCTAGCG,-0.0182
14,ATAGCTGG,-0.0164
15,AGGGGCGG,0.33
16,ACATTGTC,0.193
17,AAACCCAC,-0.0362
18,CGAGTCCC,0.313
19,CATGGGTA,0.115
20,ATAATCAG,-0.104
21,CGTATGAC,-0.0105
22,GTCTGGTA,-0.268
23,GAGGACCC,0.117
24,GATGAAGC,0.0567
25,TCTACCCA,0.0139

row,Sequence,PBM E-score
1,GGCTCGAA,-0.0314
2,CCACGGGC,0.101
3,ATACCAGG,-0.108
4,AGATTAAC,-0.0576
5,GTTTAAGA,0.0225
6,ACGCAGAA,-0.168
7,ACAATTGA,-0.11
8,ACCGCAGC,-0.0166
9,AGTTTGAA,-0.0107
10,CTCTCAGC,-0.362
11,CCCGCTCG,0.212
12,AGCATGCA,-0.235
13,CACTAATA,-0.0594
14,AGACACCT,-0.117
15,CTCAAGAG,-0.265
16,AGCTCTAA,-0.0842
17,CCTTACCG,0.247
18,ATATTGTA,-0.08
19,ATGTAGAC,-0.166
20,TAGGATGA,-0.0397
21,GTATTGTA,0.122
22,ATAGTTAG,-0.00201
23,CAATGATC,-0.126
24,ATTGGACA,0.0311
25,ATAGTACG,-0.0687

row,Sequence,PBM E-score
1,CATCGATG,-0.133
2,AAGCCAAG,-0.0879
3,CTGCGACA,-0.0899
4,GGGCTACC,-0.148
5,CACACGGA,0.276
6,CAATCCTC,-0.179
7,ACGAATCA,-0.0567
8,CGGCCATC,0.0852
9,AATATGCT,0.0215
10,AGAAGTTG,-0.172
11,AGTGGGGG,-0.192
12,ATGGAGCC,-0.219
13,TAATGTGA,-0.0882
14,AATACTGT,0.0455
15,AACCTGAT,-0.16
16,CACCGGCG,0.165
17,GGCAGAGA,0.0584
18,AATATAAG,0.0541
19,CCAGCTTA,-0.055
20,TGACGCAA,-0.208
21,AACTGCAT,-0.213
22,AACTCCTA,-0.106
23,AGATATTG,-0.0198
24,GAGGACTC,-0.232
25,CCGTTTGC,0.108

row,Sequence,PBM E-score
1,GTAGTTCA,0.0756
2,CAAGGCAC,-0.177
3,CTGTGGAC,-0.205
4,CCCCGGGC,0.192
5,GTACCTGA,-0.0644
6,TATAAGCA,-0.024
7,AAGCACTG,-0.124
8,CAGTTTTA,-0.149
9,ACTAAAGA,-0.154
10,ACCCTAGA,-0.157
11,CTTACCGC,0.119
12,AGACGCAG,-0.191
13,ACTCAACA,-0.164
14,GGACCGCA,0.0668
15,CGTGAGGA,0.071
16,CTACCAAC,-0.0959
17,AGTTACCC,0.123
18,GACGCTGC,-0.0925
19,GCCAATGA,-0.21
20,ATCCGGAT,0.459
21,AGAGATGC,-0.0787
22,ATGTCCAG,-0.097
23,AGAATTTC,-0.0676
24,ATCCGGTA,0.322
25,ACAACCCT,-0.153

row,Sequence,PBM E-score
1,ATTTGAAA,-0.0208
2,ACCGTACG,-0.127
3,GGATCGAC,0.278
4,CCAAAGGA,-0.265
5,ACATCAAA,-0.0159
6,CAGTCCAC,-0.306
7,CCAGGTAG,-0.138
8,CTTCAAAG,-0.197
9,ATCAGGAT,0.045
10,GCTTATCC,0.254
11,CAATTCGA,-0.215
12,ATGTACAG,0.0274
13,CGACGTAG,-0.0433
14,CGGCTACG,0.3
15,ACAAAGGG,-0.244
16,GAGTCTAA,-0.109
17,CGACAGAA,0.121
18,GGCACACA,0.14
19,CGTGTTAA,-0.179
20,CATCCGAG,0.481
21,CGTGCCAC,-0.0445
22,GCTTTCAA,-0.0547
23,AGAAGTCA,-0.164
24,ATACTGTC,-0.00802
25,CTCCTGCA,-0.295

row,Sequence,PBM E-score
1,AGGCGCGC,-0.031
2,ATGTTTAA,-0.0636
3,AGAGAACG,-0.155
4,GCCAGGGA,-0.197
5,ATCACAAA,-0.149
6,AGTCCTTA,-0.2
7,CCGTTAAA,0.047
8,CTCAGAAC,-0.12
9,CACAGCCG,0.33
10,AACATCGA,-0.165
11,ACAGGCTC,-0.0329
12,ATTGCTAG,-0.0987
13,GGAGCTCA,-0.0824
14,GGGGTAAC,-0.122
15,CGGTTCAA,0.186
16,AGCGTGGA,-0.104
17,ATGCGCAT,-0.0617
18,ATCGGGCG,0.0895
19,CGATGAGC,0.0814
20,AATAGTAC,-0.108
21,CGTACGAG,-0.145
22,CGTTTGAA,-0.0238
23,AAGGTGGC,-0.0629
24,CTATGAAG,-0.128
25,GCGTGAAC,-0.14

row,Sequence,PBM E-score
1,ATACGTTC,-0.239
2,CAAATCGA,-0.244
3,ACTCTATC,-0.0391
4,GGTGCTTA,-0.209
5,ACCCGGCA,0.28
6,GACGCCGC,0.022
7,CCGCAATA,0.182
8,CAACAAAG,-0.108
9,GATACGAA,0.0389
10,ACAGTACG,-0.074
11,GCGCCCCC,-0.0513
12,CCGTCGAG,0.0589
13,ATTTTGCG,-0.0544
14,AAATAATT,0.11
15,AAGGGTTA,-0.154
16,GCTCTGTA,-0.196
17,AGTAAAAA,0.0111
18,CTACGCTC,-0.15
19,ATCTCCTC,0.0416
20,AGTAGGGA,-0.113
21,ACGGGGGG,-0.228
22,AATATTCC,0.347
23,AATGAACC,-0.0493
24,ACCACCGT,-0.141
25,CGGCGCAC,0.229

row,Sequence,PBM E-score
1,CCGAATGA,0.375
2,AGCCTCAC,-0.255
3,GCATTCCA,-0.153
4,AAAACTAA,-0.0736
5,ATGGTGAA,0.0288
6,CTGATGCA,-0.19
7,ATGAATCC,0.00087
8,AATATCGA,-0.0257
9,GTTAAGTA,-0.0919
10,CGCATCCC,-0.0101
11,CTCATATA,0.0386
12,AAACTATT,0.0429
13,GATCCGGC,0.396
14,ACGGGCCT,0.0389
15,CAGCCGAA,0.392
16,CACGGGAG,0.166
17,CGCCGGTA,0.112
18,CGCGAAAC,0.029
19,CGTACGTA,-0.187
20,AGCGCAGA,-0.136
21,ATCTAGGA,-0.094
22,AATAAGGT,0.0936
23,ATGATAAG,0.0379
24,ACAAGCGT,-0.117
25,ATCTTTAG,0.0557

row,Sequence,PBM E-score
1,CGATGACC,0.0158
2,CGTCCTGC,-0.121
3,ACAGCGAT,-0.15
4,AGTCGCGC,0.0947
5,CCACTCGG,0.369
6,TATACGCA,-0.105
7,CCGATGAC,0.249
8,ATTCCGCC,0.325
9,CAAACAGA,-0.189
10,CGGCTCCA,0.227
11,ACCAATTC,0.0117
12,CCAGTGCG,-0.16
13,CATGTTGC,-0.141
14,GCGTCTAC,-0.107
15,ACCCGTAT,0.245
16,AGATTCTA,-0.128
17,AATTAAAC,-0.0423
18,CACGAATA,-0.22
19,CAAAGTAC,-0.173
20,GCAAGGAA,-0.0342
21,AGGCTTAG,-0.0551
22,ACCACTTA,0.0405
23,GCAGGAGA,-0.114
24,CAGGTCGG,0.205
25,CTTATTGA,-0.0282

row,Sequence,PBM E-score
1,GACCCAGC,-0.0269
2,CTATCCGC,0.396
3,ATACTACG,-0.0506
4,AGCGGGCG,0.0147
5,CAGCCATC,-0.148
6,CGAAACCA,0.118
7,ACCGATAT,0.143
8,CATCAATA,-0.221
9,AACATTAC,-0.0327
10,ACAAACGC,-0.0477
11,CGAACCCG,0.296
12,CAATAGGA,-0.217
13,ACGCCGAA,0.317
14,ACTAGGGA,-0.171
15,ACTACCAT,-0.13
16,AGATGGGC,0.0521
17,TAGTAATA,-0.199
18,AAGCTTAT,-0.114
19,AAGAGACT,-0.103
